# The supplement of paper PMC7826260
# This is one part of the list. Viral Rep nickase domains cut single-stranded DNA in vitro (3 µM enzyme, 1 h, 37 °C); shown is the middle of each 90-letter strand. Uncut reads are compared with the no-enzyme pool on a log2 scale; more negative means more cut, near 0 not cut, and no call is made. Because reads are shares of a total, they shift together; uncut strands gain when others are lost, and binding without cutting may add a little.
# Legend:
# Assay in all cases: uncleaved DNA left, log2 of reads against the no-enzyme library (log2 ratio); higher = less cleavage (more negative = more Rep cleavage of the k-mer); sequences stand for … in CTCGTCCG…ACCGGAGA
# [1] = tested on: T1, Rep nickase domain of Muscovy duck circovirus
# T1 sequence (residues 1-111 of Rep, tag left off): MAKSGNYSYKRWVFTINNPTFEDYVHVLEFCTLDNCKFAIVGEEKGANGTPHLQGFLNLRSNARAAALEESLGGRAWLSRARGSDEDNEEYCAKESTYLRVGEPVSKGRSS
# Protocol: (§1)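 A pool of 90-nt single-stranded DNAs with seven random bases just before the constant AC of the nick site (name = the seven bases) was cut by 3 µM recombinant His6-SUMO-tagged Rep nickase domain (300 nM DNA, 50 mM HEPES pH 8.0, 50 mM NaCl, 1 mM MnCl2, 1 h, 37 °C, three replicates). Uncut DNA was amplified and sequenced.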
# [2] = tested on: T2, Rep nickase domain of banana bunchy top virus
# T2 sequence (residues 1-94 of Rep, tag left off): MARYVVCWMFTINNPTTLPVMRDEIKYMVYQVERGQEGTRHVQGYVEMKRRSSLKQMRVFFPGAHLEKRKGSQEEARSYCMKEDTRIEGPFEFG
# Protocol: as §1
# [3] = tested on: T3, Rep nickase domain of cabbage leaf curl virus
# T3 sequence (residues 1-116 of Rep, tag left off): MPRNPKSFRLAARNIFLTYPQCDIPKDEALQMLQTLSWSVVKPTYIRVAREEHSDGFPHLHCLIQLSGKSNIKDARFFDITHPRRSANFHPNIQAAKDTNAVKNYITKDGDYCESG
# Protocol: as §1
# [4] = tested on: T4, Rep nickase domain of chickpea chlorotic dwarf virus
# T4 sequence (residues 1-124 of Rep, tag left off): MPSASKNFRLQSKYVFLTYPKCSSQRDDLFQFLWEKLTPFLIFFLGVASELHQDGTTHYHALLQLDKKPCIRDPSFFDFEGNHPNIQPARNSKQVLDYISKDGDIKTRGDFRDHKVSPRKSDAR
# Protocol: as §1
# [5] = tested on: T5, Rep nickase domain of faba bean necrotic yellows virus
# T5 sequence (residues 1-98 of Rep, tag left off): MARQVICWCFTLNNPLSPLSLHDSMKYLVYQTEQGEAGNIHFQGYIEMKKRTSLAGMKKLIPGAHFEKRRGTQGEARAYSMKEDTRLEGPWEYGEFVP
# Protocol: as §1
# [6] = tested on: T6, Rep nickase domain of maize striate mosaic virus
# T6 sequence (residues 1-117 of Rep, tag left off): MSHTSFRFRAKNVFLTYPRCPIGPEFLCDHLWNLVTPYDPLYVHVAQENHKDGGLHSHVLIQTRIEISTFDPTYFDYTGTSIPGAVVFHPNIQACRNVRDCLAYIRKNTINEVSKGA
# Protocol: as §1
# [7] = tested on: T7, Rep nickase domain of porcine circovirus 2
# T7 sequence (residues 2-116 of Rep, tag left off): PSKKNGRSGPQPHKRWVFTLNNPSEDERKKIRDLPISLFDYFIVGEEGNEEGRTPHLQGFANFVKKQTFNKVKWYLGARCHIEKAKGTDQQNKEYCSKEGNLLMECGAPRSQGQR
# Protocol: as §1
# [8] = tested on: T8, Rep nickase domain of tomato golden mosaic virus
# T8 sequence (residues 1-124 of Rep, tag left off): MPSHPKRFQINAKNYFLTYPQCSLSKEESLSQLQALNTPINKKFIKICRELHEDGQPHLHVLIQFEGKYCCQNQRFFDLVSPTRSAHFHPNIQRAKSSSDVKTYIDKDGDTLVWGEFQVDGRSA
# Protocol: as §1
# [9] = tested on: T9, Rep nickase domain of tomato yellow leaf curl virus
# T9 sequence (residues 1-136 of Rep, tag left off): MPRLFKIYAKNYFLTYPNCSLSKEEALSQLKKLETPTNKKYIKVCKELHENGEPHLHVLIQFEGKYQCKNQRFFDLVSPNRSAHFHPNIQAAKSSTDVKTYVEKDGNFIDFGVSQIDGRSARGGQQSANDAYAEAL
# Protocol: as §1
# [10] = tested on: T10, Rep nickase domain of wheat dwarf virus
# T10 sequence (residues 1-137 of Rep, tag left off): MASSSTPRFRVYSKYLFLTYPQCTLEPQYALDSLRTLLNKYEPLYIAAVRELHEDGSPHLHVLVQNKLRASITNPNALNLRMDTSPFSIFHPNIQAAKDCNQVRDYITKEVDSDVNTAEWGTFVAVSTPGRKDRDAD
# Protocol: as §1
Sequence,uncleaved DNA left (log2) [1],uncleaved DNA left (log2) [2],uncleaved DNA left (log2) [3],uncleaved DNA left (log2) [4],uncleaved DNA left (log2) [5],uncleaved DNA left (log2) [6],uncleaved DNA left (log2) [7],uncleaved DNA left (log2) [8],uncleaved DNA left (log2) [9],uncleaved DNA left (log2) [10]
GCCGGGC,-0.0362,-0.0101,0.604,0.978,-0.0429,1.54,0.193,0.134,-0.0519,0.0604
CGCGATA,-0.214,-0.0696,-0.355,-0.419,-0.103,-0.637,-0.0943,-0.163,-0.24,-0.165
TTGCGAC,0.0777,0.0246,-0.442,0.0681,0.0976,-0.754,0.0776,-0.0488,0.119,0.111
GTGTTGT,0.0674,0.092,0.431,0.75,-0.0423,1.29,-0.347,0.0216,0.203,0.0774
GCTTTTT,-1.59,-0.0544,0.136,-0.722,-0.0286,0.419,-2.45,0.0296,0.116,-0.158
TCACGTG,0.0109,-0.0261,-0.607,-0.691,-0.0589,-0.992,0.21,-0.0392,-0.0765,-0.0638
AAGAAAT,-0.0884,-0.119,0.191,1.12,-0.103,1.45,-3.17,-0.0458,-0.126,0.127
CACCTTG,0.138,0.0878,-0.517,-1.41,0.157,-0.932,-0.091,-0.0101,0.0782,-0.00653
TGCGGCG,-0.0324,-0.131,-0.864,-0.625,-0.0556,-0.849,-0.00701,-0.0155,-0.0661,-0.265
TGATCAG,0.0947,0.0197,-0.503,-0.43,0.0648,-1,0.234,0.0226,0.149,-0.0228
CCGGTAA,0.0614,0.0752,0.25,0.141,0.0412,0.525,0.141,-0.0571,0.0432,0.0255
ATGTGGC,-0.0609,0.0191,-0.265,-0.471,-0.0109,-1.01,0.177,-0.0871,0.00597,-0.079
GATTCCC,-1.17,-0.198,0.251,0.304,-0.508,0.996,-2.92,-0.0404,0.0595,0.125
TACACCA,0.00627,-0.065,-0.286,-2.39,-0.0605,-0.177,-0.314,-0.054,-0.0541,-0.0796
ATGTTCC,0.0261,-0.014,0.0732,0.037,-0.0166,0.0958,-0.316,0.0389,0.063,0.0541
GAGGTTG,0.0746,0.024,0.0969,0.292,0.0609,0.673,0.0306,0.0993,0.0075,-0.0357
GTAACCT,-0.0413,-0.0161,0.144,0.547,-0.0173,1.61,-0.0724,0.0455,0.11,0.0997
TTTACTG,0.0241,0.126,-0.0515,0.113,0.0117,1.07,0.0457,-0.0372,0.00152,0.0462
GCGATGT,-0.0011,-0.0934,0.00786,0.564,-0.0434,1.31,0.0439,-0.107,-0.0934,-0.0628
GCATAGG,0.0362,0.0917,0.0677,0.679,0.134,-0.0525,0.288,0.17,0.136,0.0984

Sequence,uncleaved DNA left (log2) [1],uncleaved DNA left (log2) [2],uncleaved DNA left (log2) [3],uncleaved DNA left (log2) [4],uncleaved DNA left (log2) [5],uncleaved DNA left (log2) [6],uncleaved DNA left (log2) [7],uncleaved DNA left (log2) [8],uncleaved DNA left (log2) [9],uncleaved DNA left (log2) [10]
TCTCCGG,0.0377,0.0626,0.607,1.47,0.114,1.99,0.184,0.157,-0.0504,0.157
CGGGTTG,-0.0734,-0.163,-0.104,0.272,-0.0807,0.442,-0.0128,-0.0036,-0.224,-0.0133
TAGTGCC,0.0113,-0.103,-0.424,-0.709,-0.153,-1.03,-2.03,-0.0505,-0.112,-0.168
CATTACT,-4.15,-3.98,-2.57,-3.48,-2.69,-1.69,-3.91,-2.23,0.0689,-0.886
ATAACCC,-0.307,-0.197,-0.413,-1.54,-0.0866,-0.644,-0.958,-0.12,-0.219,-0.091
TCTGTAG,-0.0121,-0.0958,-0.692,-0.862,0.0167,-1.16,0.102,-0.0248,0.0423,-0.156
CGAGTGA,0.283,0.114,0.256,0.777,0.263,1.62,0.236,0.103,0.0336,0.248
CTGTTCC,-0.126,-0.126,0.0232,0.0697,-0.274,-0.0382,-0.12,-0.173,-0.135,-0.0322
ATCCCAA,0.0453,0.0323,0.0544,-0.142,-0.014,-0.576,-0.0444,-0.0661,-0.0558,0.0641
CACATTC,0.0397,0.00253,-0.409,-0.407,0.0491,-1.03,0.139,-0.094,-0.0738,-0.0843
CCAGAAA,-0.0227,0.0702,0.0197,-0.0469,0.0103,-0.5,0.0871,0.141,0.0708,0.102
TGAAACA,-0.0199,0.0493,0.386,-0.315,-0.0159,1.16,0.0165,0.00961,0.0292,0.171
GTTCTCG,0.0199,0.0396,-0.167,-0.283,0.0282,-0.614,0.0617,0.125,-0.0183,-0.00784
ATGAACC,0.0633,0.0131,0.143,0.172,0.0205,-0.0151,-0.0937,-0.0141,0.0849,0.0661
AATTTGC,-0.0796,0.0148,-0.805,-0.116,0.0336,-1.08,0.092,-0.106,-0.000832,-0.134
CACGGAG,0.15,0.0382,-0.557,-0.398,0.124,-0.721,0.0956,0.0359,0.04,-0.0959
AAGAACT,0.0302,-0.26,-0.124,-2.35,-0.0474,0.495,-3.7,-0.052,-0.0618,0.0299
TGTATTA,-0.251,-0.0731,0.148,-0.216,-0.269,0.448,-0.116,-0.0991,0.025,-0.151
TGATACT,-3.99,-0.155,-1.91,-2.96,-0.0505,-0.872,-3.89,-0.528,0.0293,-1.77
GACGTCT,-0.0135,-0.0679,0.0688,-1.6,-0.0469,0.433,-0.251,-0.141,-0.0782,-0.0576

Sequence,uncleaved DNA left (log2) [1],uncleaved DNA left (log2) [2],uncleaved DNA left (log2) [3],uncleaved DNA left (log2) [4],uncleaved DNA left (log2) [5],uncleaved DNA left (log2) [6],uncleaved DNA left (log2) [7],uncleaved DNA left (log2) [8],uncleaved DNA left (log2) [9],uncleaved DNA left (log2) [10]
ACTGAGT,0.127,0.0352,0.0391,0.0114,0.0799,-0.504,-0.0111,0.12,0.109,0.0313
GGACCAG,-0.063,0.0891,0.711,1.65,0.0125,1.8,0.116,-0.102,-0.143,0.11
TTTAATG,0.178,0.071,-0.327,-0.559,-0.0903,-0.942,0.0541,-0.0386,-0.0788,-0.0895
GAGATTA,-0.0174,0.0664,0.288,0.254,-0.0911,1.34,-0.585,0.0284,-0.0419,0.0211
CCAAACC,-0.149,0.0951,-0.0507,-0.862,0.106,-0.611,-0.127,-0.0976,0.0177,-0.000744
GCTCAGA,0.143,0.0879,0.164,0.572,0.149,-0.0359,0.143,-0.0177,0.136,0.058
CCTCCAC,0.148,0.0504,-0.0807,-0.367,-0.00229,-0.625,0.178,-0.0345,0.0787,-0.051
GCCGTTC,0.0389,-0.0809,0.259,0.31,0.0503,0.138,0.012,0.0947,0.126,-0.0814
CAGCTAA,-0.00345,0.1,-0.129,-0.754,-0.0809,-0.305,-0.172,0.0185,-0.0646,0.031
AACTCCT,-2.02,-1.19,-0.392,-3.09,0.013,-0.226,-3.49,-0.104,0.0217,-0.114
CTGCAGG,0.19,0.057,0.0371,0.404,0.293,-0.463,0.243,0.104,0.193,0.19
CTAAAAC,0.0776,0.0436,-0.0251,-1.03,0.0476,-0.839,0.16,0.0959,-0.0404,0.0783
CGGAGTG,0.0476,-0.0994,-0.2,0.145,-0.0776,0.0779,0.105,-0.0576,0.109,-0.114
TGTAATT,0.0882,0.0494,0.174,-1.48,-0.0768,0.553,-1.47,-0.0204,-0.007,0.0869
CCTAATA,-0.26,-0.0928,-0.367,-1.54,-0.162,-0.981,-0.266,-0.121,-0.0994,-0.251
GTGGGAT,0.0551,0.103,0.522,1.69,0.113,2.02,0.225,0.121,-0.056,0.0725
TCTGGCT,0.0778,-0.00357,-0.246,-0.701,0.0603,-0.537,0.0442,0.0103,-0.0229,-0.00992
AATACAC,0.0344,0.0725,0.0186,-0.572,0.0208,-0.634,0.0857,0.108,-0.0355,0.0211
ATCTGCA,-0.0489,-0.198,-0.534,-0.747,0.0171,-0.999,-0.076,-0.0959,-0.0659,-0.119
GGTATCT,0.0461,0.0977,0.503,0.936,-0.00941,1.81,-0.176,0.0202,0.0657,0.0784
